Source: ChEMBL document CHEMBL1156829
The full ranking holds about 5,400 compounds; the median of “IFI” is about 2, and the highest 2% start at about 22. The list shows a part of the results.

Test: NOVARTIS: Inhibition Frequency Index (IFI) - the number of HTS assays where a compound showed > 50% inhibition/induction, expressed as a percentage of the number of assays in which the compound was tested.
Type: functional

First: COc1ccc(C2CC3=NC(C)=C(C(=O)OC(C)C)C(c4ccccc4Cl)C3=C(O)C2)cc1OC (stereo not drawn)
Second: COc1ccc(C2CC(=O)C3=C(C2)NC(C)=C(C(=O)OC(C)C)C3c2ccc(Cl)cc2Cl)cc1OC (stereo not drawn)
The IFI of the first is higher: 4.76% for the first, 4.71% for the second.

First: COc1cc(NC(C)CCCN(Cc2ccc(OC)c(OC)c2)C(=O)c2ccc3ccccc3c2)c2ncccc2c1 (stereo not drawn)
Second: COc1cc(NC(C)CCCN(Cc2ccc(F)cc2)C(=O)C(c2ccccc2)c2ccccc2)c2ncccc2c1 (stereo not drawn)
The IFI of the first is higher: 5.71% for the first, 4.67% for the second.

Going from CC(C)(C)CC(C)(C)Nc1c(-c2ccccc2OC(=O)c2ccccc2)nc2ccccn12 to CCCCCCC(=O)Oc1ccccc1-c1nc2cc(C)ccn2c1NC(C)(C)CC(C)(C)C, the IFI falls from 4.2% to 2.13%.

COc1ccc(C(=O)n2nc(N)c3cc4ccc(C)cc4nc32)cc1[N+](=O)[O-] and Cc1ccc(Sc2c(C)nn(C(=O)c3cccnc3)c2C)cc1 are the same in IFI: 0% for the first, 0% for the second.

First: CCCCc1ccc(C(=O)N(CCC(=O)Nc2nnc(-c3ccc(OC)cc3)s2)CCc2ccc(OC)c(OC)c2)cc1
Second: CCCCN(C(=O)c1ccccc1C)c1nc(-c2cc(OC)ccc2OC)cs1
The IFI of the first is higher: 2.8% for the first, 1.79% for the second.

Compared with COc1ccc(C2=Nc3cc(C(=O)NCCN4CCOCC4)ccc3CN2C(C)C)cc1, CCOc1cccc(C2=Nc3cc(C(=O)NC(C)C)ccc3CN2CC2CCCCC2)c1 is higher in IFI: 1.22% for the first, 1.24% for the second.

Going from COc1ccc(OC)c(-c2ccc(O)c(CNCCc3ccc(F)cc3)c2)c1 to COc1ccc2nc(C)cc(NN=Cc3cccc(OC)c3O)c2c1, the IFI rises from 2.59% to 7.69%.

Going from CCOC(=O)C1=C(C)N(c2ccc(OCC)cc2)C(=O)/C1=C\c1ccc(C(C)C)cc1 to CCOc1ccc2[nH]c(=O)c(CN(Cc3ccccc3OC)C(C)=O)cc2c1, the IFI falls from 3.53% to 3.03%.

Going from CCOc1ccc2c(c1)sc(=NC(=O)Nc1ccc(OC)cc1)n2C to CCOc1ccc2nc(C)cc(Nc3cccc(O)c3)c2c1, the IFI rises from 0% to 1.06%.

Compared with O=C(CNCCc1ccccc1)NC(c1ccccc1)c1ccccc1, CCN1CCC(NCCC(c2ccccc2)c2ccccc2)CC1 is higher in IFI: 1.82% for the first, 4.1% for the second.

Compared with Cc1ccc2c(c1)N(CC(=O)NC1CCCCC1C)C(=O)CO2 (stereo not drawn), CC1=C(C(=O)OC2CCCCC2)C(c2cccc([N+](=O)[O-])c2)C2=C(CCCC2=O)N1 (stereo not drawn) is higher in IFI: 0% for the first, 1.45% for the second.

Compared with O=C(Nc1ccc(-c2nnc(-c3ccccc3)o2)cc1)c1ccc(Br)cc1, COc1cc(C(=O)Nc2nnc(-c3ccccc3)o2)cc(OC)c1OC is lower in IFI: 4.69% for the first, 0% for the second.

Compared with C=CCn1nc(C(=O)N2CCCC2)c2c1CCC(N1CCCCCC1)C2 (stereo not drawn), CC(C)CC(=O)OC1C(N2CCCCC2)c2c(ccc(/C=C/C(=O)N3CCCCC3)c2O)OC1(C)C (stereo not drawn) is lower in IFI: 2.41% for the first, 0% for the second.

Compared with CCCCCCN(C(=O)COCc1ccccc1)C(CC)c1nc2ccccc2c(=O)n1-c1ccc(F)c(Cl)c1 (stereo not drawn), CCCNC(=O)CCCCCSc1nc2ccccc2c(=O)n1-c1ccc(F)cc1 is lower in IFI: 1.89% for the first, 0.926% for the second.

O=C1c2ccccc2-c2nc3ccc(C(F)(F)F)cc3nc21 and O=C(CSc1nc2ccccc2c(=O)n1C1CC1)Nc1cc(C(F)(F)F)ccc1Cl are the same in IFI: 0% for the first, 0% for the second.

CN(C)c1ccc(NC(=O)C2C3C=CC(O3)C2C(=O)O)cc1 (stereo not drawn) and CCOC(=O)c1c(NC(=O)c2ccccc2)sc2c(O)c(CN(CC)CC)ccc12 are the same in IFI: 0% for the first, 0% for the second.

Compared with COCCNC(=O)CN1C(=O)CC(C)(C)Sc2ccccc21, CCOC(=O)C(=O)N1c2ccc(C)cc2C(C)(c2ccccc2)CC1(C)C (stereo not drawn) is higher in IFI: 0% for the first, 1.07% for the second.

Cc1cc(C)nc(Nc2nc(C)c3cc(C)c(C)cc3n2)n1 and Cc1cc(C)cc(Nc2cc(C)nc3nc(C)nn23)c1 are the same in IFI: 0% for the first, 0% for the second.

Going from CN(c1ccc(Cl)cc1)S(=O)(=O)c1ccc2[nH]cc(C(=O)NCCC3=CCCCC3)c(=O)c2c1 to CC1=C(C(=O)OC2CCCC2)C(c2ccc(Cl)cc2)C2=C(CC(c3ccc(Cl)cc3)CC2=O)N1 (stereo not drawn), the IFI falls from 7.69% to 4.65%.

O=C(N/C(=C/C=C/c1ccccc1)C(=O)N1CCOCC1)c1ccccc1 and c1ccc(-c2ccccc2OCCNCCN2CCOCC2)cc1 are the same in IFI: 0% for the first, 0% for the second.

Compared with Cn1c(NN=Cc2ccccc2)cc(=O)n(C)c1=O, COc1ccc(C=NNc2cc(C)nc(-c3ccccc3)n2)cc1OC is lower in IFI: 2.29% for the first, 0% for the second.

Compared with Brc1ccc2[nH]c3nc4ccccc4nc3c2c1, c1ccc2c(c1)ccc1cc3cccc[n+]3cc12 is higher in IFI: 3.77% for the first, 9.09% for the second.

Going from Cc1cn2c3ccccc3n(CCN3CCCC3)c2n1 to CC(C)CNc1nc(NCCCN2CCCC2)ncc1C(=O)NCc1ccccc1, the IFI rises from 0% to 2.86%.

Compared with CN1CCN=C1c1ccc(NC(=O)c2ccc(C(=O)Nc3ccc(C4=NCCN4C)cc3)cc2)cc1, Nc1cc(C(=O)Nc2ccc(C3=NCCN3)cc2)ccc1C(=O)Nc1ccc(C2=NCCN2)cc1 is higher in IFI: 2.52% for the first, 2.59% for the second.

First: Nc1ccc(-c2nc(-c3ccc(N)cc3)c3ccccc3n2)cc1
Second: O=C(Nc1cccc(-c2nc3ccccc3[nH]2)c1)c1cc(=O)c2ccccc2o1
The IFI of the first is lower: 0% for the first, 2.33% for the second.

Going from c1ccc(COCC[N+]2(Cc3ccccc3)CCCCC2)cc1 to CCN(CC)CCCC(C)NCc1ccc(OCc2ccccc2)c(OC)c1 (stereo not drawn), the IFI rises from 0.769% to 7.14%.

Compared with COc1cccc2c1C(=O)C1C(O)=C3C(=C(O)C1C2=O)CC(O)(C(C)=NN=C1CC(C)(C)N(O)C(C)(C)C1)CC3OC1CC(C)(N)C(O)CO1 (stereo not drawn), COc1ccc(C2CC(=O)C3=C(C2)NC(C)=C(C(=O)OC(C)C)C3c2cccc(Br)c2)cc1OC (stereo not drawn) is lower in IFI: 21.4% for the first, 3.53% for the second.

O=C(NCc1cc2cc3c(cc2nc1Cl)OCO3)c1ccco1 and COC(=O)CC(NS(=O)(=O)c1ccc(OC)cc1)c1ccc2c(c1)OCO2 (stereo not drawn) are the same in IFI: 0% for the first, 0% for the second.

First: COc1ccc2[nH]c(=O)c(CN(C(=S)Nc3ccccc3OC)C3CCCC3)cc2c1
Second: CCCNC1=C(c2ccc(OC)cc2)C(=O)c2ccccc21
The IFI of the first is higher: 2.17% for the first, 0% for the second.

First: COc1ccc2cc(C)c3nnc(SCC(=O)N4CCN(C(=O)c5ccco5)CC4)n3c2c1
Second: CCOc1ccccc1NC(=O)CN1CCN(C(=O)c2ccco2)CC1
The IFI of the first is higher: 3.54% for the first, 0% for the second.

Going from COc1nc(Nc2ccc(C(C)C)cc2)nc(OC)n1 to COc1ccc(Nc2nc(NN=Cc3cccc([N+](=O)[O-])c3OC)nc(Nc3ccc([N+](=O)[O-])cc3)n2)cc1, the IFI rises from 2.27% to 6.49%.

Going from Cc1ccc(-n2c(SCc3cc(=O)n4ccccc4n3)nc3ccsc3c2=O)cc1C to Cc1cc(/C=C2\SC(=Nc3ccccc3)NC2=O)c(C)n1-c1ccccc1, the IFI rises from 0% to 8.43%.

Going from O=C(ON(C(=O)c1ccc(F)cc1)C1C2CC3CC(C2)CC1C3)c1ccc(F)cc1 (stereo not drawn) to Cc1ccc(NC(=O)N2CCN(C(=O)c3nc(-c4ccccc4)nc(C)c3C(=O)OC(C)C)CC2C)cc1 (stereo not drawn), the IFI rises from 0% to 0.935%.

COc1cccc(CC2(CO)CCCN(Cc3sc(N4CCCC4)nc3Cl)C2)c1 (stereo not drawn) and COc1ccc(CCN2CCC(NCc3cccc(N(C)C)c3)CC2)cc1 are the same in IFI: 0% for the first, 0% for the second.

Compared with CC(=O)Nc1ccc2c(c1)C(=O)N(C(CC(C)C)C(=O)NCC(=O)O)[C@@H](CCC(=O)OCc1ccccc1)C(=O)N2 (stereo partly drawn), CCOC(=O)c1cnc2c(C)cccc2c1Nc1cccc(C(C)=O)c1 is lower in IFI: 2.44% for the first, 0% for the second.

Going from COc1ccccc1N1CCN(C2CCN(C3CCC(c4ccccc4)CC3)CC2)CC1 (stereo not drawn) to O=C(Nc1ccc2nc3n(c(=O)c2c1)CCCCC3)C(=O)N1CCN(c2ccccc2)CC1, the IFI falls from 3.45% to 0%.

Going from CCc1nc(N)nc(N)c1-c1ccc(Cl)cc1 to CCCCOc1ccc(N2C(N)=NC(N)=NC2(C)C)cc1, the IFI falls from 4.12% to 0%.

Going from O=C1c2ccccc2C2=Nc3ccccc3SC(c3cccc(F)c3)C12 (stereo not drawn) to Cc1cc(/C=C2\Sc3ccccc3N2C)[n+](C)c2ccccc12, the IFI rises from 3.23% to 20%.

CC(C)C(=O)NC(Nc1cccc([N+](=O)[O-])c1)C(Cl)(Cl)Cl (stereo not drawn) and CC(=O)NC(CO)C(O)c1ccc([N+](=O)[O-])cc1 (stereo not drawn) are the same in IFI: 0% for the first, 0% for the second.

Going from COc1ccc(-c2cc(C(F)(F)F)n3ncc(C(=O)Nc4cccc(Cl)c4Cl)c3n2)cc1OC to COc1cc(OC)cc(C(=O)NCc2n[nH]c(=S)n2-c2ccc(Br)cc2)c1, the IFI rises from 0% to 2.3%.

Compared with CC(C)(C)CC(=O)NCCCCNc1ccnc2cc(Cl)ccc12, Cc1ncc(CCCCN(C)C)c2c1[nH]c1ccccc12 is higher in IFI: 1.87% for the first, 11.1% for the second.

First: Cc1sc2nc(C3CC3)n(C3CCN(C(=O)C4CC=CCC4)CC3)c(=O)c2c1C (stereo not drawn)
Second: CC(C)C1=Nc2cc(C(N)=O)ccc2CN1C1CC1
The IFI of the first is lower: 0% for the first, 4.94% for the second.

Going from Cc1ccc(-c2cn3c([n+]2-c2ccc(C)cc2)CCCCC3)cc1 to CSC1=NC(=Nc2c(C)cccc2C)C2(CCC(C(C)(C)C)CC2)N1c1ccc(Cl)cc1 (stereo not drawn), the IFI falls from 15.4% to 0%.

Compared with CCC(C)NC(=O)CN(c1cc(OC)ccc1OC)S(C)(=O)=O (stereo not drawn), COc1ccc(C2C(C(C)=O)=C(O)C(=O)N2CCCn2ccnc2)c(OC)c1 (stereo not drawn) is lower in IFI: 4% for the first, 0% for the second.

Going from OC(CN1CCN(C/C=C/c2ccccc2)CC1)Cn1c2ccc(Cl)cc2c2cc(Cl)ccc21 (stereo not drawn) to CCOC(=O)c1ccc2nc(-c3ccccc3)cc(O)c2c1, the IFI rises from 0% to 15.7%.

Compared with Cc1nc2ccc(Br)cc2c(O)c1CC(C)C, CCOc1cc(-c2nnc3[nH]c(=O)n(C)c(=O)c3n2)ccc1OC(C)C is higher in IFI: 0% for the first, 4.44% for the second.

Compared with O=C(CSc1ccc2nnc(-c3cccs3)n2n1)Nc1ccc2c(c1)OCCO2, CC1=C(C(=O)Nc2ccc(C)cc2C)C(c2ccc([N+](=O)[O-])cc2)n2ncc(C(=O)Nc3ccc(F)cc3)c2N1 (stereo not drawn) is lower in IFI: 4.17% for the first, 0% for the second.

Compared with C=CCC1(Nc2ccccc2)CCCCC1, O=C(NC1CCN(Cc2ccccc2)CC1)c1cc([N+](=O)[O-])cc([N+](=O)[O-])c1 is higher in IFI: 0% for the first, 1.5% for the second.

Going from CC(=O)OC1C(NC(=O)c2cc([N+](=O)[O-])c(N(C)C)c([N+](=O)[O-])c2)OC(C(=O)N2CCOCC2)C(OC(C)=O)C1OC(C)=O (stereo not drawn) to O=C1Nc2ccc(S(=O)(=O)Nc3ccc(NS(=O)(=O)c4ccc5c6c(cccc46)C(=O)N5)cc3)c3cccc1c23, the IFI rises from 0% to 2.08%.
